From patent US4132738A, “Preparation of 15-deoxy-16-hydroxyprostaglandins” (Miles Laboratories, Inc., priority 1978, dated 1979)
The name of at least one read-out is uncertain.

Tests used:
rat colon = assay: Cascade assay, rat colon in vitro; type: cell-based; settings: 0.0001 to 100,000 ng, max = PGF2α response
[1] = test system: gastric secretion in the rat; assay: Effects on gastric secretion in the rat; type: in vivo; settings: pylorus ligated, s.c. 1.5 mg/kg twice, total 3.0 mg/kg, 4 hours
rat uterus = assay: Effects on the rat uterus in vitro; type: cell-based; settings: 0.001 to 10 mcg/ml, ED50 relative to carbachol response
chick rectum = assay: Cascade assay, chick rectum in vitro; type: cell-based; settings: 0.0001 to 100,000 ng, max = PGE1 response
rabbit aorta = assay: Cascade assay, rabbit aorta in vitro; type: cell-based; settings: rabbit aortic strip in vitro; 0.0001 to 100,000 ng; max = PGA2 response
[2] = test system: femoral blood flow in the anesthetized dog; assay: Effects on femoral blood flow in the anesthetized dog; type: in vivo; settings: intraarterial 0.001 to 10 mcg
Experimental: The peripheral vasodilator or constrictor effects of test compounds were determined in mongrel dogs of either sex, weighing between 10 and 20 kg, anesthetized intravenously with 35 mg/kg of pentobarbital sodium. An external iliac artery was dissected immediately above the femoral arch for a length of approximately 5 cm, and a previously calibarated, non-cannulating electromagnetic-flowmeter sensor with a lumen between 2.5 and 3.5 mm was placed snugly around the vessel. Cannulas were placed in a branch of the artery arising distally to the location of the flowmeter sensor for intraarterial drug administrations, in the contralateral femoral artery for systemic blood pressure recording, and in the trachea for artificial respiration with room air. Femoral blood flow and systemic blood pressure were continuously recorded with an electromagnetic flowmeter and pressure transducer, respectively.
After an adequate control period, test compounds were injected intraarterially at one log-spaced doses ranging from 0.001 to 10 mcg, in a volume of 0.5 ml and at 5 to 10 minute intervals. Maximum changes in blood flow, as well as any variations in blood pressure, were tablulated for each dose in absolute values (ml/min. and mmHg), and the former were also expressed in percent. Those calculations were made taking as control values those existing immediately before administration of each dose. The direction of the observed change (+ for increase and -- for decrease) was also noted. The dose changing blood flow by 100 ml/min (ED100 ml/min) was calculated graphically and was used for scoring activity as follows: […]

rat stomach = assay: Cascade assay, rat stomach fundus in vitro; type: cell-based; settings: 0.0001 to 100,000 ng, max = PGE1 response
[3] = test system: blood pressure and heart rate in the anesthetized cat; assay: Effects on blood pressure and heart rate in the anesthetized cat; type: in vivo; settings: i.v. 0.01 to 10.0 mcg/kg, scored on hypotension only
Experimental: The acute effects of test compounds on blood pressure and heart rate were determined in cats of either sex anesthetized with a mixture of pentobarbital sodium (35 mg/kg, i.v.) and barbital sodium (100 mg/kg, i.v.). Cannulas were placed in the trachea to allow adequate spontaneous ventilation, in a femoral artery for blood pressure recording with a strain gage transducer, and in a saphenous vein for drug administration.
Heart rate was recorded by means of a cardiotachometer driven by the R wave of the electrocardiogram. After a period of 10 minutes of stable recordings of blood pressure and heart rate, the test compound was administered intravenously at doses increasing from 0.01 to 10.0 mcg/kg, spaced one log and injected at 10 minute intervals. All doses were injected in a volume of 0.1 ml/kg. Modifications of blood pressure and heart rate induced by the test compound were expressed both in absolute units (mmHg and beats/minute) and as percent of values recorded immediately before administration of each dose. Biphasic responses were tabulated in the order in which they occurred. The direction of the observed changes is also noted (+ for increases, and - for decreases).
Activity of compounds in this test was judged only on the basis of the degree of hypotension observed. Thus, the ED50 mmHg (dose decreasing blood pressure by 50 mmHg) was calculated graphically, and the compound scored according to the following scale: […]

Row | SMILES | Cascade, Colon: activity value (ED50) (rat colon) | Gastric Secretion: activity value (% decrease in acidity) [1] | Rat Uterus: activity value (ED50) (rat uterus) | Cascade, Rectum: activity value (ED50) (chick rectum) | Cascade, Aorta: activity value (ED50) (rabbit aorta) | Femoral Blood Flow: activity value (ED100 ml/min) [2] | Cascade, Stomache: activity value (ED50) (rat stomach) | Feline Blood Pressure Heart Rate: activity value (ED50 mmHg) [3]
1 | O=C1C[C@@H](O)[C@H](/C=C/CC2(O)CCCCC2)[C@H]1CCCCCCCO [TR 4703, 16, 20-Methano-1, 11α, 16-trihydroxyprost-13E-en-9-one] | 0 (ED50, ng >10000) | 0 (% decrease in acidity <26) | 0 (ED50 (mcg/ml) >10) | 0 (ED50, ng >10000) | 0 (ED50, ng >10000) | 0 (ED100 ml/min. mcg >10.0) | 0 (ED50, ng >10000) | 0 (ED50 mmHg, mcg/kg >10.0)
2 | COC(=O)CCCCCC[C@H]1C(=O)C[C@@H](O)[C@@H]1/C=C/CC1(O)CCCCC1 [TR 4717, Methyl 11α, 16RS-dihydroxy-16, 20-methano-9-oxoprost-13E-en-1-oate] | 0 (ED50, ng >10000) | 3 (% decrease in acidity 51-75) | 0 (ED50 (mcg/ml) >10) | 0 (ED50, ng >10000) | 0 (ED50, ng >10000) | 2 (ED100 ml/min. mcg 0.11 - 1.0) | 1 (ED50, ng 1001 - 10000) | 1 (ED50 mmHg, mcg/kg 1.01 - 10.0)
3 | CCCC(C)C(O)C/C=C/[C@H]1[C@H](O)CC(=O)[C@@H]1CCCCCCC(=O)OC (stereo partly drawn) [TR 4814, Methyl 11α, 16RS-dihydroxy-17-methyl-9-oxoprost-13E-oate, reference compound] | 0 (ED50, ng >10000) | 4 (% decrease in acidity 76-100) | 0 (ED50 (mcg/ml) >10) | 0 (ED50, ng >10000) | 0 (ED50, ng >10000) | 2 (ED100 ml/min. mcg 0.11 - 1.0) | 0 (ED50, ng >10000) | 0 (ED50 mmHg, mcg/kg >10.0)
4 | CCCC(C)(C)C(O)C/C=C/[C@H]1[C@H](O)CC(=O)[C@@H]1CCCCCCCO (single isomer, unassigned) [TR 4752, 1, 11α, 16R or S-trihydroxy-17-dimethylprost-13E-en-9-one] | 0 (ED50, ng >10000) | 0 (% decrease in acidity <26) | 0 (ED50 (mcg/ml) >10) | 0 (ED50, ng >10000) | 0 (ED50, ng >10000) | 0 (ED100 ml/min. mcg >10.0) | 0 (ED50, ng >10000) | 0 (ED50 mmHg, mcg/kg >10.0)
5 | COC(=O)CCCCCC[C@H]1C(=O)C[C@@H](O)[C@@H]1/C=C/CC1(O)CC2C=CCC21 (stereo partly drawn) [TR 4800, Methyl 11α, 16RS-dihydroxy-16, 18-methano-17, 20-methano-9-oxoprosta-13E, 19-dien-1-oate] | 0 (ED50, ng >10000) | 3 (% decrease in acidity 51-75) | 0 (ED50 (mcg/ml) >10) | 0 (ED50, ng >10000) | 0 (ED50, ng >10000) | 1 (ED100 ml/min. mcg 1.01 - 10.0) | 0 (ED50, ng >10000) | 0 (ED50 mmHg, mcg/kg >10.0)
6 | COC(=O)CCCCCC[C@H]1C(=O)C[C@@H](O)[C@@H]1/C=C/[C@H]1CCCC[C@@H]1O [TR 4767, Methyl 15R, 20-cyclo-11α, 16-trans-dihydro-9-oxoprost-13E-en-1-oate] | 0 (ED50, ng >10000) | 0 (% decrease in acidity <26) | 0 (ED50 (mcg/ml) >10) | 1 (ED50, ng 1001 - 10000) | 0 (ED50, ng >10000) | 0 (ED100 ml/min. mcg >10.0) | 2 (ED50, ng 101 - 1000) | 0 (ED50 mmHg, mcg/kg >10.0)
7 | CCC1CC(O)(C/C=C/[C@H]2[C@H](O)CC(=O)[C@@H]2CCCCCCCO)C1 (stereo partly drawn) [TR 4770, 16, 18-Methano-1, 11α, 16RS-trihydroxyprost-13E-en-9-one] | 0 (ED50, ng >10000) | 3 (% decrease in acidity 51-75) | 0 (ED50 (mcg/ml) >10) | 1 (ED50, ng 1001 - 10000) | 0 (ED50, ng >10000) | 0 (ED100 ml/min. mcg >10.0) | 0 (ED50, ng >10000) | 0 (ED50 mmHg, mcg/kg >10.0)
